Test results taken from patent US20230046078A1, “METHODS OF USING SUBSTITUTED FLAVONES FOR TREATING BONE DISORDERS” (EMORY UNIVERSITY, priority 2021, published 2023).
Some entries of the source have several records that differ or are many. Only these are listed. An entry can have further records. The values listed for one entry seem to repeat one measurement on other runs, samples or individuals. What stands in brackets tells the records apart. The letters are not those of the source and start again with each entry.

Test system: MC3T3-E1 cells
Assay type: cell-based, Murine
Conditions: OIM, four days
Experimental: Total RNA was isolated by TRIzol (Life Technologies, Carlsbad, Calif.). Reverse transcription was performed with SuperScript III reverse transcriptase (Life Technologies). Gene-specific primers and probes were designed and bought from Taqman (Life Technologies). All real-time PCR reactions were performed using the ABI 7500-Fast Real-Time PCR System and the Taqman Universal Master Mix Kit (Life Technologies). The relative quantification of gene expression was calculated using the ΔΔCt method. Predesigned real-time PCR primers from Applied Biosystems (Waltham, Mass.) were used for the analysis of Opg (Tnfrsf11b; Mm0043545_m1), RANK-L (Tnfsf11; Mm00441908_m1), AEP (Lgmn; Mm01325350_m1), GAPDH (Gapdh; Mm99999915_g1).

`O=c1cc(-c2ccccc2)oc2c(O)c(O)ccc12` [7,8-DHF] was tested, and the “OPG mRNA levels” value was “increases [passage A] and strong stimulatory effect [passage B]”.
